Measured values from PubChem BioAssay (Tox21).
Values joined by “and” are separate entries in the source; they are usually repeats but may differ in a detail not shown here. Equal entries are not always repeated. The shares of active, inactive and inconclusive entries below differ from those in the screen. Potencies of inconclusive entries are doubtful fits and often do not repeat. Active and inactive are the calls of the source. The call rests on the fitted dose curve; in most records, active means well fitted inhibition curve with a large enough effect in the repeat runs; inconclusive means weak or mixed curves; inactive means no such curve, though single readings can be large or run the other way.
Potency means the concentration at half of the fitted maximal effect; tags describe the fitted curve by direction and shape.

These compounds were tested against Cytochrome P450 1A2 (Homo sapiens) (UniProt P05177) (assay: Cytochrome P450 Family 1 Subfamily A Member 2 (CYP1A2) small molecule antagonists: luciferase reporter qHTS assay (AID 1671199; further: nearly all actives have a fitted effect of over 50% in size)). Details: P450-Glo CYP1A2 enzyme, luciferin luminescence, 1 h; series mostly up to 115 µM.
Chain of UniProt P05177 (P05177 whole entry, looked up): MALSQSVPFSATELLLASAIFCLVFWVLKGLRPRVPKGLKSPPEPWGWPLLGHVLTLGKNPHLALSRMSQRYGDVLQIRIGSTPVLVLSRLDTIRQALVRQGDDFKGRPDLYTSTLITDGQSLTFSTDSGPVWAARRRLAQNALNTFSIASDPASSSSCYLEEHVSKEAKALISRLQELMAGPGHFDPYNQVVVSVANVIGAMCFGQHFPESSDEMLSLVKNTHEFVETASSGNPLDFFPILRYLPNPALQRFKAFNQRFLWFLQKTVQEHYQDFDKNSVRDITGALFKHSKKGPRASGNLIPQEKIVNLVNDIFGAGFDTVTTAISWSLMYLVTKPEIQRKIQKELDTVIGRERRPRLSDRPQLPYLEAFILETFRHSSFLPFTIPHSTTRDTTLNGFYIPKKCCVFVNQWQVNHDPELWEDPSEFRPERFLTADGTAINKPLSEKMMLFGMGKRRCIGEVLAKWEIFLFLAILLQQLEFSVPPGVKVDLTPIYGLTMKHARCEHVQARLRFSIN
Method in brief: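 Luminescence readout (relative luminescence units) after luciferin detection reagent, 20 min RT. Preceded by 1 h room-temperature CYP1A2 reaction with NADPH regeneration solution following 10 min compound preincubation with enzyme and proluciferin substrate. Furafylline positive control.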
For `CC(C)(C)CC(C)(C)c1ccc(OCCOCC[N+](C)(C)Cc2ccccc2)cc1`, the Potency was inconclusive: 70.9 µM [inhibitor, partial curve].
With `COc1ccc(C(Cl)=C(c2ccc(OC)cc2)c2ccc(OC)cc2)cc1` the Potency was inconclusive: 39.8 µM [inhibitor, partial curve] and inactive.
For `N#Cc1nc(Cl)c(Cl)c(Cl)c1Cl`, the Potency was active: 5.03 µM.
`CC(C)c1ccc2sc3ccccc3c(=O)c2c1` was tested, and the Potency was active: 7.1 µM.
For `O=C1Cc2cc(CCN3CCN(c4nsc5ccccc45)CC3)c(Cl)cc2N1`, the Potency was inconclusive: 38.9 µM [inhibitor, single point].
With `CC1=C(/C=C/C(C)=C/C=C/C(C)=C/C=O)C(C)(C)CCC1` the Potency was inconclusive: 88.9 µM [inhibitor, single point].
For `CCN(CC)c1ccc(N)cc1`, the Potency was active: 41 µM.
With `NCc1cccc(CN)c1` the Potency was inconclusive: 65 µM [inhibitor, partial curve, poor fit].
For `CCCCOCCOCCOCCO`, the Potency was inconclusive: 70.2 µM [inhibitor, partial curve, poor fit] and inconclusive: 36.4 µM [inhibitor, partial curve].
`C=C(C)C(=O)OCCCCCCCCCCCC` was tested, and the Potency was “inactive”.
With `CC1=NN(c2ccccc2)C(=O)C1` the Potency was inconclusive: 35.8 µM [inhibitor, partial curve] and inconclusive: 28.3 µM [inhibitor, full curve] and inconclusive: 27.5 µM [inhibitor, partial curve].
With `CCCCCCCCCCCCOC(=O)c1cc(O)c(O)c(O)c1` the Potency was inconclusive: 99.9 µM [inhibitor, single point].
In the case of `CCCN(CCC)C(=O)C(CCC(=O)OCCCN1CCN(CCOC(=O)Cc2c(C)n(C(=O)c3ccc(Cl)cc3)c3ccc(OC)cc23)CC1)NC(=O)c1ccccc1` (configuration not stated), the Potency is reported as inconclusive: 36.3 µM [inhibitor, partial curve, poor fit].
For `CCOc1ccc([N+](=O)[O-])cc1`, the Potency was active: 32.2 µM.
With `Clc1ccc2n[nH]nc2c1` the Potency was inconclusive: 44.8 µM [inhibitor, partial curve].
`Clc1ccc(C(Cn2ccnc2)OCc2ccsc2Cl)c(Cl)c1` (configuration not stated) was tested, and the Potency was active: 4.56 µM.
With `CCCCCCCCCCCCCCCCCC[N+](C)(C)Cc1ccccc1` the Potency was active: 80.4 µM.
